Assay results published in the supplement of paper PMC8813932.
Where a name gives a salt, the structure may show the parent alone. ± gives the standard deviation of the averaged measurements. The list shows a part of the results. Most values come without repeats; read them as rough.

Experiments:
Experiment in all cases: log2 surviving fraction relative to plate median (drug vs vehicle, or drug+dl922-947 vs dl922-947 alone); ovarian cancer lines: OVCAR4 is platinum-sensitive while Ov4Cis resists cisplatin and Ov4Carbo carboplatin; higher = more cell survival
Settings in all cases: compound concentration: 10 uM, 192 h
[1] = test system: OVCAR4
[2] = test system: Ov4Carbo
[3] = test system: Ov4Cis
[4] = dl922-947 oncolytic adenovirus co-treatment: MOI 10
[5] = dl922-947 oncolytic adenovirus co-treatment: none

C[C@]12CC[C@H](O)C[C@H]1CC[C@@H]1[C@@H]2C[C@@H](O)[C@]2(C)[C@@H](C3=CC(=O)OC3)CC[C@]12O [Digoxigenin]
log2 surviving fraction [1, 4]: -9.37 ± 0.23
log2 surviving fraction [1, 5]: -11.2 ± 6.6
log2 surviving fraction [2, 4]: -8.51
log2 surviving fraction [2, 5]: -11.7
log2 surviving fraction [3, 4]: -8.47
log2 surviving fraction [3, 5]: -12.1

OC1(c2ccc(Cl)c(C(F)(F)F)c2)CCN(CCCC(c2ccc(F)cc2)c2ccc(F)cc2)CC1 [Penfluridol]
log2 surviving fraction [1, 4]: -10.5 ± 0.59
log2 surviving fraction [1, 5]: -12.2 ± 6.5
log2 surviving fraction [2, 4]: -8.91
log2 surviving fraction [2, 5]: -12.6
log2 surviving fraction [3, 4]: -8.64
log2 surviving fraction [3, 5]: -15.4

C[C@]12CC[C@H](O)CC1=CC[C@@H]1[C@@H]2CC[C@]2(C)C(=O)CC[C@@H]12 [Dehydroepiandrosterone (DHEA)]
log2 surviving fraction [1, 4]: 0.289 ± 0.18
log2 surviving fraction [1, 5]: 0.554 ± 0.27
log2 surviving fraction [2, 4]: 0.74
log2 surviving fraction [2, 5]: -0.0756
log2 surviving fraction [3, 4]: 0.739
log2 surviving fraction [3, 5]: 0.743

Nc1ccc(C(=O)O)c(O)c1 [Aminosalicylate sodium]
log2 surviving fraction [1, 4]: 0.111 ± 0.65
log2 surviving fraction [1, 5]: 0.043 ± 0.029
log2 surviving fraction [2, 4]: 0.718
log2 surviving fraction [2, 5]: -0.0857
log2 surviving fraction [3, 4]: -0.653
log2 surviving fraction [3, 5]: -0.819

CC1(C)S[C@@H]2[C@H](NC(=O)Cc3ccccc3)C(=O)N2[C@H]1C(=O)O [Benzylpenicillin sodium]
log2 surviving fraction [1, 4]: 0.0208 ± 0.055
log2 surviving fraction [1, 5]: -0.0185 ± 0.65
log2 surviving fraction [2, 4]: 0.246
log2 surviving fraction [2, 5]: -6.93
log2 surviving fraction [3, 4]: -0.987
log2 surviving fraction [3, 5]: -0.365

CC(C)NCC(O)c1ccc(O)c(O)c1 (centres undefined) [Isoprenaline hydrochloride]
log2 surviving fraction [1, 4]: 0.19 ± 0.67
log2 surviving fraction [1, 5]: -0.0965 ± 0.42
log2 surviving fraction [2, 4]: 0.0603
log2 surviving fraction [2, 5]: 0.625
log2 surviving fraction [3, 4]: -0.691
log2 surviving fraction [3, 5]: 0.9

CC(C)CCC[C@@H](C)[C@H]1CC[C@H]2[C@@H]3CC=C4C[C@@H](O)CC[C@]4(C)[C@H]3CC[C@]12C [Cholesterol]
log2 surviving fraction [1, 4]: 0.525 ± 0.5
log2 surviving fraction [1, 5]: -0.641 ± 0.61
log2 surviving fraction [2, 4]: 0.742
log2 surviving fraction [2, 5]: 0.893
log2 surviving fraction [3, 4]: 0.178
log2 surviving fraction [3, 5]: 0.764

Nc1[nH]cnc2ncnc1-2 [Adenine sulfate]
log2 surviving fraction [1, 4]: 0.022 ± 0.71
log2 surviving fraction [1, 5]: 1.07 ± 1.1
log2 surviving fraction [2, 4]: 0.777
log2 surviving fraction [2, 5]: 0.299
log2 surviving fraction [3, 4]: 0.0647
log2 surviving fraction [3, 5]: 1.33

O=c1[nH]c(=O)n(C2CCCO2)cc1F (centres undefined) [Ftorafur]
log2 surviving fraction [1, 4]: 0.257 ± 0.91
log2 surviving fraction [1, 5]: -1.15 ± 1.3
log2 surviving fraction [2, 4]: -0.324
log2 surviving fraction [2, 5]: 0.187
log2 surviving fraction [3, 4]: 0.232
log2 surviving fraction [3, 5]: 0.581

NNC(=O)c1ccncc1 [Isoniazid (Tubizid)]
log2 surviving fraction [1, 4]: 0.415 ± 0.33
log2 surviving fraction [1, 5]: 0.421 ± 0.057
log2 surviving fraction [2, 4]: -0.363
log2 surviving fraction [2, 5]: 0.291
log2 surviving fraction [3, 4]: -0.0935
log2 surviving fraction [3, 5]: 0.59

CC(=O)N[C@@H](CS)C(=O)O [Acetylcysteine]
log2 surviving fraction [1, 4]: 0.0163 ± 0.99
log2 surviving fraction [1, 5]: 0.234 ± 0.69
log2 surviving fraction [2, 4]: 1.47
log2 surviving fraction [2, 5]: 1.17
log2 surviving fraction [3, 4]: -0.294
log2 surviving fraction [3, 5]: -0.148

C[C@@H](O)[C@H]1C(=O)N2C(C(=O)O)=C(S[C@@H]3CN[C@H](CNS(N)(=O)=O)C3)[C@H](C)[C@H]12 [Doripenem Hydrate]
log2 surviving fraction [1, 4]: 0.275 ± 0.25
log2 surviving fraction [1, 5]: 0.673 ± 0.71
log2 surviving fraction [2, 4]: 0.117
log2 surviving fraction [2, 5]: -0.199
log2 surviving fraction [3, 4]: 0.208
log2 surviving fraction [3, 5]: 0.42

COc1cc2nc(N3CCN(C(=O)c4ccco4)CC3)nc(N)c2cc1OC [Prazosin HCl]
log2 surviving fraction [1, 4]: -5.32 ± 1.3
log2 surviving fraction [1, 5]: -3.74 ± 1
log2 surviving fraction [2, 4]: -7.85
log2 surviving fraction [2, 5]: -9.66
log2 surviving fraction [3, 4]: -5.35
log2 surviving fraction [3, 5]: -9.26

CN(C)[C@@H](CCOc1cccc2ccccc12)c1ccccc1 [Dapoxetine hydrochloride (Priligy)]
log2 surviving fraction [1, 4]: -0.827 ± 0.7
log2 surviving fraction [1, 5]: -1.19 ± 0.33
log2 surviving fraction [2, 4]: -1.27
log2 surviving fraction [2, 5]: -1.5
log2 surviving fraction [3, 4]: -2.25
log2 surviving fraction [3, 5]: -1.61

Cc1onc(-c2ccccc2)c1-c1ccc(S(N)(=O)=O)cc1 [Bextra (valdecoxib)]
log2 surviving fraction [1, 4]: 0.0156 ± 0.24
log2 surviving fraction [1, 5]: -0.396 ± 0.22
log2 surviving fraction [2, 4]: -0.952
log2 surviving fraction [2, 5]: 0.544
log2 surviving fraction [3, 4]: -0.543
log2 surviving fraction [3, 5]: -0.26

Cc1ccc(NC(=O)c2ccc(CN3CCN(C)CC3)cc2)cc1Nc1nccc(-c2cccnc2)n1 [Imatinib (Gleevec)]
log2 surviving fraction [1, 4]: 0.222 ± 0.32
log2 surviving fraction [1, 5]: -0.409 ± 0.59
log2 surviving fraction [2, 4]: -0.175
log2 surviving fraction [2, 5]: 0.416
log2 surviving fraction [3, 4]: 0.516
log2 surviving fraction [3, 5]: 0.0188

CCOc1nc2cccc(C(=O)O)c2n1Cc1ccc(-c2ccccc2-c2nnn[nH]2)cc1 [Candesartan (Atacand)]
log2 surviving fraction [1, 4]: -0.287 ± 0.019
log2 surviving fraction [1, 5]: -0.481 ± 0.1
log2 surviving fraction [2, 4]: 0.107
log2 surviving fraction [2, 5]: -0.852
log2 surviving fraction [3, 4]: -0.904
log2 surviving fraction [3, 5]: 0.00136

C[C@@H]1C[C@H]2[C@@H]3C[C@H](F)C4=CC(=O)C=C[C@]4(C)[C@@]3(F)[C@@H](O)C[C@]2(C)[C@@]1(O)C(=O)CO [Flumethasone]
log2 surviving fraction [1, 4]: 1 ± 0.62
log2 surviving fraction [1, 5]: -0.22 ± 0.08
log2 surviving fraction [2, 4]: 1.82
log2 surviving fraction [2, 5]: -0.786
log2 surviving fraction [3, 4]: 1.68
log2 surviving fraction [3, 5]: -1.1

O=c1n(CCCN2CCN(c3cccc(Cl)c3)CC2)nc2ccccn12 [Trazodone hydrochloride (Desyrel)]
log2 surviving fraction [1, 4]: 0.149 ± 0.25
log2 surviving fraction [1, 5]: -0.0575 ± 0.88
log2 surviving fraction [2, 4]: 0.506
log2 surviving fraction [2, 5]: -0.265
log2 surviving fraction [3, 4]: 0.342
log2 surviving fraction [3, 5]: 0.486

CCCCOc1cc(C(=O)OCCN(CC)CC)ccc1N [Oxybuprocaine HCl]
log2 surviving fraction [1, 4]: 0.229 ± 0.013
log2 surviving fraction [1, 5]: -0.131 ± 0.38
log2 surviving fraction [2, 4]: 0.11
log2 surviving fraction [2, 5]: 1.18
log2 surviving fraction [3, 4]: -0.0873
log2 surviving fraction [3, 5]: 0.296

C[C@@H]1CN(c2c(F)c(F)c3c(=O)c(C(=O)O)cn(C4CC4)c3c2F)C[C@H](C)N1 [Orbifloxacin]
log2 surviving fraction [1, 4]: -0.734 ± 0.53
log2 surviving fraction [1, 5]: 0.0821 ± 0.44
log2 surviving fraction [2, 4]: 0.433
log2 surviving fraction [2, 5]: -0.289
log2 surviving fraction [3, 4]: -1.28
log2 surviving fraction [3, 5]: 0.0824

Cc1nc2n(c(=O)c1CCN1CCC(c3noc4cc(F)ccc34)CC1)CCCC2 [Risperidone (Risperdal)]
log2 surviving fraction [1, 4]: -0.243 ± 0.033
log2 surviving fraction [1, 5]: -0.22 ± 0.2
log2 surviving fraction [2, 4]: 0.686
log2 surviving fraction [2, 5]: -0.716
log2 surviving fraction [3, 4]: -0.208
log2 surviving fraction [3, 5]: -0.523

C[N+](C)(C)CCOC(N)=O [Carbachol]
log2 surviving fraction [1, 4]: 0.141 ± 1
log2 surviving fraction [1, 5]: -0.408 ± 0.11
log2 surviving fraction [2, 4]: 0.319
log2 surviving fraction [2, 5]: 0.72
log2 surviving fraction [3, 4]: 0.362
log2 surviving fraction [3, 5]: -0.386

Nc1ccc(O)c(C(=O)O)c1 [Mesalamine (Lialda)]
log2 surviving fraction [1, 4]: 0.881 ± 0.26
log2 surviving fraction [1, 5]: 0.0177 ± 0.025
log2 surviving fraction [2, 4]: 1.23
log2 surviving fraction [2, 5]: -0.644
log2 surviving fraction [3, 4]: 0.193
log2 surviving fraction [3, 5]: -0.0478

COc1ccc2c(c1)c(CC(=O)OCC(=O)O)c(C)n2C(=O)c1ccc(Cl)cc1 [Acemetacin (Emflex)]
log2 surviving fraction [1, 4]: -0.0171 ± 0.17
log2 surviving fraction [1, 5]: 0.261 ± 0.34
log2 surviving fraction [2, 4]: 0.0791
log2 surviving fraction [2, 5]: -1.4
log2 surviving fraction [3, 4]: 1.29
log2 surviving fraction [3, 5]: 0.957

CC[C@@H]([C@H](C)O)n1ncn(-c2ccc(N3CCN(c4ccc(OC[C@@H]5CO[C@@](Cn6cncn6)(c6ccc(F)cc6F)C5)cc4)CC3)cc2)c1=O [Posaconazole]
log2 surviving fraction [1, 4]: 0.375 ± 1.3
log2 surviving fraction [1, 5]: 3.6 ± 1.5
log2 surviving fraction [2, 4]: -3.81
log2 surviving fraction [2, 5]: -6.56
log2 surviving fraction [3, 4]: 0.673
log2 surviving fraction [3, 5]: 2.32

COc1ccc2cc([C@H](C)C(=O)O)ccc2c1 [Naproxen (Aleve)]
log2 surviving fraction [1, 4]: 0.214 ± 0.89
log2 surviving fraction [1, 5]: 0.327 ± 0.91
log2 surviving fraction [2, 4]: 1.35
log2 surviving fraction [2, 5]: 0.318
log2 surviving fraction [3, 4]: -0.0423
log2 surviving fraction [3, 5]: -1.24

CC1(C)[C@@H](OC(=O)CCC(=O)O)CC[C@]2(C)[C@H]3C(=O)C=C4[C@@H]5C[C@@](C)(C(=O)O)CC[C@]5(C)CC[C@@]4(C)[C@]3(C)CC[C@@H]12 [Carbenoxolone Sodium]
log2 surviving fraction [1, 4]: 0.427 ± 0.34
log2 surviving fraction [1, 5]: 0.351 ± 0.42
log2 surviving fraction [2, 4]: 1.08
log2 surviving fraction [2, 5]: 1.69
log2 surviving fraction [3, 4]: 0.00923
log2 surviving fraction [3, 5]: -1.11

Cc1ccccc1C(OCCN(C)C)c1ccccc1 (centres undefined) [Orphenadrine citrate (Norflex)]
log2 surviving fraction [1, 4]: -0.594 ± 0.55
log2 surviving fraction [1, 5]: 0.3 ± 0.86
log2 surviving fraction [2, 4]: -0.962
log2 surviving fraction [2, 5]: 0.254
log2 surviving fraction [3, 4]: -0.303
log2 surviving fraction [3, 5]: 0.947

CCOc1ccc2nc(S(N)(=O)=O)sc2c1 [Ethoxzolamide]
log2 surviving fraction [1, 4]: 0.379 ± 0.34
log2 surviving fraction [1, 5]: -0.198 ± 0.31
log2 surviving fraction [2, 4]: 1.56
log2 surviving fraction [2, 5]: 0.998
log2 surviving fraction [3, 4]: 0.438
log2 surviving fraction [3, 5]: 0.114

CC(C)(C)c1ccc(C(O)CCCN2CCC(C(O)(c3ccccc3)c3ccccc3)CC2)cc1 (centres undefined) [Terfenadine]
log2 surviving fraction [1, 4]: -4.9 ± 5.2
log2 surviving fraction [1, 5]: -0.565 ± 0.29
log2 surviving fraction [2, 4]: -8.91
log2 surviving fraction [2, 5]: -12.1
log2 surviving fraction [3, 4]: -0.726
log2 surviving fraction [3, 5]: -0.418

COc1cc(C(=O)NS(=O)(=O)c2ccccc2C)ccc1Cc1cn(C)c2ccc(NC(=O)OC3CCCC3)cc12 [Zafirlukast (Accolate)]
log2 surviving fraction [1, 4]: 0.369 ± 1.6
log2 surviving fraction [1, 5]: 0.467 ± 0.72
log2 surviving fraction [2, 4]: 1.82
log2 surviving fraction [2, 5]: 0.438
log2 surviving fraction [3, 4]: 0.946
log2 surviving fraction [3, 5]: -0.124

COC(=O)C1=C(C)NC(C)=C(C(=O)OC(C)C)C1c1cccc2nonc12 (centres undefined) [Isradipine (Dynacirc)]
log2 surviving fraction [1, 4]: 1.2 ± 0.83
log2 surviving fraction [1, 5]: 0.293 ± 0.41
log2 surviving fraction [2, 4]: 0.0796
log2 surviving fraction [2, 5]: 0.125
log2 surviving fraction [3, 4]: -0.235
log2 surviving fraction [3, 5]: 0.183

CN1CCOC(c2ccccc2)c2ccccc2C1 (centres undefined) [Nefopam HCl]
log2 surviving fraction [1, 4]: -0.098 ± 0.73
log2 surviving fraction [1, 5]: 0.415 ± 0.47
log2 surviving fraction [2, 4]: 0.537
log2 surviving fraction [2, 5]: 0.579
log2 surviving fraction [3, 4]: 0.343
log2 surviving fraction [3, 5]: -0.0138
